Experimental data: US20100048696A1, “AGRICULTURAL DISEASE CONTROL AGENT” (Idemitsu Kosan Co., Ltd., priority 2007, published 2010)

Test system: Clavibacter michiganense subsp. Nebraskense (ATCC27822)
Test: Basic test: cutting knife disinfection, ring rot pathogens
Type: cell-based
Settings: cutting knife immersed 5 seconds

O=C1O[C@H]([C@@H](O)CO)C(O)=C1O [Ascorbic acid, reference compound]
Logarithm (number of ring rot pathogens) (50 times solution): 9.3 cfu

O=C(O)CC(O)(CC(=O)O)C(=O)O [Citric acid]
Logarithm (number of ring rot pathogens) (50 times solution): 9.3 cfu

O=C(O)/C=C\C(=O)O [Maleic acid]
Logarithm (number of ring rot pathogens) (2 times solution): 0.0 cfu
Logarithm (number of ring rot pathogens) (5 times solution): 0.0 cfu
Logarithm (number of ring rot pathogens) (25 times solution): 2.0 cfu
Logarithm (number of ring rot pathogens) (50 times solution): 3.6 cfu
Logarithm (number of ring rot pathogens) (100 times solution): 4.2 cfu
Logarithm (number of ring rot pathogens) (200 times solution): 4.5 cfu
Logarithm (number of ring rot pathogens) (500 times solution): 5.0 cfu

O=C1C=CC(=O)O1 [Maleic anhydride]
Logarithm (number of ring rot pathogens) (2 times solution): 0.0 cfu
Logarithm (number of ring rot pathogens) (5 times solution): 0.0 cfu
Logarithm (number of ring rot pathogens) (25 times solution): 1.5 cfu
Logarithm (number of ring rot pathogens) (50 times solution): 2.4 cfu
Logarithm (number of ring rot pathogens) (100 times solution): 4.0 cfu
Logarithm (number of ring rot pathogens) (200 times solution): 4.3 cfu
Logarithm (number of ring rot pathogens) (500 times solution): 4.7 cfu

O=C(O)CC(O)C(=O)O (centres unmarked) [Malic acid, reference compound]
Logarithm (number of ring rot pathogens) (50 times solution): 9.3 cfu
